Measurements reported in the supplement of paper PMC10322689.
Structures can show the parent of a compound that is named as a salt. This is one part of the list. Repeats are few or missing, and single values can be far off.

tested on: mouse mesenchymal chondrosarcoma cells (HEY1-NCOA2); experiment: XTT absorbance relative to DMSO control (cell viability) (fraction of DMSO control); higher = more viable cells / less growth inhibition

Row | Structure (SMILES) | XTT absorbance
1 | O=C(O)c1cc(NCc2cc(O)ccc2O)ccc1O [Lavendustin C] | 0.969
2 | CC(C)[C@H](CO)Nc1nc(Nc2cccc(Cl)c2)c2ncn(C(C)C)c2n1 [Purvalanol A] | 0.994
3 | COc1ccc([C@@H]2Sc3ccccc3N(CCN(C)C)C(=O)[C@@H]2OC(C)=O)cc1 [Diltiazem] | 0.942
4 | CSc1ccc(/C=C2/C(C)=C(CC(=O)O)c3cc(F)ccc32)cc1 [Sulindac sulfide] | 0.907
5 | C=CCc1cccc(/C=N/NC(=O)CN2CCN(Cc3ccccc3)CC2)c1O | 0.853
6 | Cc1cc(C=C2C(=O)C=CC2=O)cc(C)c1O | 0.945
7 | CN(Cc1cnc2nc(N)nc(N)c2n1)c1ccc(C(=O)N[C@@H](CCC(=O)O)C(=O)O)cc1 [Methotrexate] | 0.378
8 | COc1cccc2c1C(=O)c1c(O)c3c(c(O)c1C2=O)C[C@@](O)(C(=O)CO)C[C@@H]3O[C@H]1C[C@H](N)[C@H](O)[C@H](C)O1 [Doxorubicin, HCl] | 0.248
9 | O=Cc1ccc(N2CCOCC2)cc1O | 0.904
10 | C[C@]1(O)C[C@@H](c2nc(-c3ccc4ccc(-c5ccccc5)nc4c3)c3c(N)nccn32)C1 | 0.892
11 | CC(C)C[C@H](NC(=O)[C@H](Cc1ccccc1)NC(=O)c1cnccn1)B(O)O [bortezomib] | 0.195
12 | Cc1cc(N)c2ccccc2[n+]1CCCCCCCCCC[n+]1c(C)cc(N)c2ccccc21 [Dequalinium] | 1.13
13 | CCCCCCCC(=O)OCCOC(=O)CCCCCCC [Dioctanoylglycol] | 0.906
14 | COc1cc(Nc2ncc3c(n2)-c2ccc(Cl)cc2C(c2c(F)cccc2OC)=NC3)ccc1C(=O)O | 0.737
